The values that follow come from the antibiotic and cytotoxicity screens of Wong et al. (2023).

The list shows a part of the results.

In one assay the test system is HSkMC. The experiment in a line: cytotoxicity call (relative viability < 0.9). The following applies: 10 µM.
In a further assay the test system is HepG2. The experiment in a line: cytotoxicity call (relative viability < 0.9). The following applies: 10 µM.
Another assay concerns S. aureus RN4220. The experiment in a line: growth inhibition call (relative growth <= 0.2). Particulars: 50 µM.

For `COC(=O)C[C@H]1C=C[C@H](N)[C@H](CO)O1`, the cytotoxicity call in the assay on HSkMC and in the assay with HepG2 was “inactive” in each case. In addition, the growth inhibition call with S. aureus RN4220 is “inactive”.

Consider `C[C@H](CO)N1C[C@H](C)[C@H](CN(C)C(=O)Nc2ccccc2)OCCCC[C@H](C)Oc2ccc(NC(=O)NC3CCCCC3)cc2C1=O`, for which the cytotoxicity call in the assay with HSkMC and in the assay with HepG2 was “inactive” in each case. The growth inhibition call with S. aureus RN4220 was “inactive”.

Turning to `C[C@H]1CCCCO[C@@H](CN(C)CC2CC2)[C@@H](C)CN([C@@H](C)CO)C(=O)c2cc(NC(=O)c3ccccc3)ccc2O1`, the cytotoxicity call in the assay with HSkMC and in the assay with HepG2 was “inactive” each time. In addition, the growth inhibition call in the assay with S. aureus RN4220 was “inactive”.

On to `O=C(NCC1CC1)[C@@H]1[C@@H](CO)[C@@H]2Cn3c(cccc3=O)[C@H]1N2C(=O)c1cccnc1`, for which the cytotoxicity call in the assay with HSkMC and in the assay with HepG2 was “inactive” each time. Besides, the growth inhibition call in the assay with S. aureus RN4220 was “inactive”.

`C[C@H]1CN([C@@H](C)CO)C(=O)c2cc(NC(=O)Nc3cccc4ccccc34)ccc2O[C@H]1CN(C)CC1CCCCC1`: the cytotoxicity call with HSkMC is “inactive”. Moreover, the cytotoxicity call in the assay with HepG2 was “active”. Further, in the assay with S. aureus RN4220, the growth inhibition call was “inactive”.

With `COc1ccc(S(=O)(=O)N2C[C@H](O)COC[C@H]3O[C@H](CC(=O)NCCCN(C)C)CC[C@@H]32)cc1`, the cytotoxicity call with HSkMC and in the assay on HepG2 was “inactive” each time. In addition, the growth inhibition call in the assay on S. aureus RN4220 is “inactive”.

In the case of `C[C@H](CO)N1C[C@H](C)[C@H](CN(C)Cc2ccc(C(=O)O)cc2)Oc2ccc(NC(=O)Cn3cnnn3)cc2CC1=O`, the cytotoxicity call in the assay with HSkMC and in the assay on HepG2 was “inactive” throughout. Also, the growth inhibition call with S. aureus RN4220 is “inactive”.

In the case of `COc1ccc(CN(C)C[C@@H]2Oc3ccc(NC(=O)Nc4ccc(C(F)(F)F)cc4)cc3C(=O)N([C@H](C)CO)C[C@H]2C)cc1`, the cytotoxicity call in the assay with HSkMC and in the assay on HepG2 was “active” each time. Further, the growth inhibition call in the assay on S. aureus RN4220 is “inactive”.

Turning to `CCOC(=O)c1c(C)n[nH]c1N`, the cytotoxicity call in the assay on HSkMC and with HepG2 was “inactive” each time. The growth inhibition call in the assay with S. aureus RN4220 is “inactive”.

For the compound `COc1ccc(CN2C[C@H](C)[C@@H](OC)CN(C)C(=O)c3ccc(NC(=O)c4nc5ccccc5s4)cc3OC[C@H]2C)cc1`, the cytotoxicity call in the assay on HSkMC and in the assay with HepG2 was “inactive” throughout. For the same compound, in the assay with S. aureus RN4220, the growth inhibition call is “inactive”.

Turning to `C[C@]12CC[C@@H]3c4ccc(O)cc4C[C@@H](CCCCCCCCC[S@@](=O)CCCC(F)(F)C(F)(F)F)[C@H]3[C@@H]1CC[C@@H]2O`, the cytotoxicity call with HSkMC and with HepG2 was “inactive” throughout. Moreover, in the assay on S. aureus RN4220, the growth inhibition call is “inactive”.

Turning to `C[C@H](CO)N1C[C@H](C)[C@H](CN(C)C(=O)CCC(F)(F)F)OCCCC[C@H](C)Oc2ccc(NC(=O)C3CCCCC3)cc2C1=O`, the cytotoxicity call with HSkMC and in the assay on HepG2 was “inactive” in each case. Further, the growth inhibition call in the assay with S. aureus RN4220 was “inactive”.

Turning to `O=C(O)c1ccc(/C2=C3\C=CC(=N3)/C(c3ccc(C(=O)O)cc3)=c3/cc/c4[n]3[Mn+][n]3c2ccc3/C(c2ccc(C(=O)O)cc2)=C2/C=CC(=N2)\C=4c2ccc(C(=O)O)cc2)cc1`, the cytotoxicity call in the assay with HSkMC and in the assay with HepG2 was “inactive” each time. For the same compound, in the assay with S. aureus RN4220, the growth inhibition call was “inactive”.

On to `O=C(CCCCCNC(=O)OCCCCO[C@H]1C[C@@H](c2ccc(C(F)(F)F)cc2)C=C(C(=O)N2CCN(Cc3ccccc3)CC2)O1)NO`, for which the cytotoxicity call in the assay on HSkMC and in the assay on HepG2 was “inactive” throughout. Further, the growth inhibition call in the assay with S. aureus RN4220 is “inactive”.

On to `COc1oc(C(=O)NC2CCCCC2)c(-c2ccc(Cl)cc2)c1S(=O)(=O)c1ccccc1Cl`, for which the cytotoxicity call in the assay with HSkMC and with HepG2 was “inactive” throughout. Besides, the growth inhibition call in the assay on S. aureus RN4220 was “inactive”.

With `Cc1noc(C)c1NC(=O)N(C)C[C@@H]1Oc2ccc(NC(=O)C3CC3)cc2CC(=O)N([C@@H](C)CO)C[C@H]1C`, the cytotoxicity call in the assay with HSkMC and in the assay with HepG2 was “inactive” throughout. Besides, in the assay on S. aureus RN4220, the growth inhibition call was “inactive”.

Consider `O=C(CO)N1C[C@H]2C[C@@H]1C[C@@H]2Oc1cccnc1`, for which the cytotoxicity call in the assay with HSkMC and with HepG2 was “inactive” each time. Besides, the growth inhibition call in the assay with S. aureus RN4220 is “inactive”.

`C[C@H](CO)N1C[C@H](C)[C@@H](CN(C)C(=O)Nc2ccc(C(F)(F)F)cc2)Oc2ccc(NC(=O)NC3CCCCC3)cc2C1=O`: the cytotoxicity call in the assay with HSkMC and in the assay with HepG2 was “inactive” throughout. In addition, the growth inhibition call in the assay on S. aureus RN4220 is “inactive”.

In the case of `C[C@@H]1CN([C@@H](C)CO)C(=O)c2cc(NS(C)(=O)=O)ccc2O[C@@H](C)CCCCO[C@H]1CN(C)S(=O)(=O)c1ccc(F)cc1`, the cytotoxicity call in the assay on HSkMC and with HepG2 was “inactive” each time. For the same compound, in the assay with S. aureus RN4220, the growth inhibition call is “inactive”.

Take `C[C@H]1CN([C@@H](C)CO)C(=O)CCCn2cc(nn2)CO[C@H]1CN(C)C(=O)Nc1ccc(C(C)(C)C)cc1`: the cytotoxicity call in the assay on HSkMC and in the assay on HepG2 was “inactive” each time. Also, the growth inhibition call in the assay on S. aureus RN4220 is “inactive”.

With `C[C@@H]1CN([C@H](C)CO)C(=O)c2cccc(NS(=O)(=O)c3ccccc3)c2O[C@@H]1CN(C)CC1CC1`, the cytotoxicity call with HSkMC and in the assay on HepG2 was “inactive” each time. Further, the growth inhibition call in the assay with S. aureus RN4220 is “inactive”.

For `COCC(=O)N(C)C[C@H]1Oc2cc(C#Cc3cccnc3)ccc2S(=O)(=O)N([C@H](C)CO)C[C@@H]1C`, the cytotoxicity call in the assay on HSkMC and in the assay with HepG2 was “inactive” throughout. For the same compound, the growth inhibition call in the assay on S. aureus RN4220 was “inactive”.

For `C[C@@H]1CCCCO[C@@H](CN(C)C(=O)c2ccccc2)[C@H](C)CN([C@@H](C)CO)C(=O)c2cc(NC(=O)Nc3ccc(F)cc3)ccc2O1`, the cytotoxicity call in the assay with HSkMC and with HepG2 was “inactive” each time. Further, the growth inhibition call in the assay on S. aureus RN4220 was “inactive”.

For `Cc1noc(C)c1NC(=O)Nc1cccc2c1O[C@H](CN(C)S(C)(=O)=O)[C@H](C)CN([C@H](C)CO)C2=O`, the cytotoxicity call in the assay with HSkMC and in the assay with HepG2 was “inactive” each time. The growth inhibition call in the assay with S. aureus RN4220 is “inactive”.

For the compound `COc1ccc(S(=O)(=O)N(C)C[C@H]2Oc3ccc(NC(=O)Cc4ccccc4)cc3CC(=O)N([C@@H](C)CO)C[C@H]2C)cc1`, the cytotoxicity call in the assay on HSkMC (human skeletal muscle cells) and with HepG2 was “inactive” each time. Moreover, the growth inhibition call in the assay with S. aureus RN4220 was “inactive”.
